This is an account of results in publication PMC4242493.

The other results are listed elsewhere or left out. The list includes weakly bound sequences.

This assay has as its target MaxL homodimer (UniProt P61244). Description: universal protein-binding microarray (PBM). As to conditions: PBS-based mixture, 10 nM His-tagged protein dimer, 2% milk, 200 ng/uL BSA, 50 ng/uL salmon testes DNA, 0.02% TX-100; detection with Alexa 488 anti-His …; high values mean tight binding; most listed sequences are background and not binding sites; double strand, one strand shown.
UniProt P61244, sequence (P61244 whole entry): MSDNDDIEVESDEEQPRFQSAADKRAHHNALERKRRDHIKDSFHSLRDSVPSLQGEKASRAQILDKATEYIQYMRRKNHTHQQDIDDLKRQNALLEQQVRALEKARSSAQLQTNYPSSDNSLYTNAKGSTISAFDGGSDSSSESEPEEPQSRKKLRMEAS
Turning to GCGTATGA, the binding signal (normalized occupancy) was determined as 0.0735. Next, GCTTATCC: 0.0762.

With ACAAATGA, the binding signal (normalized occupancy) amounted to 0.0834. With CCCGCTAC, the binding signal (normalized occupancy) worked out at 0.0704. With ATGTCCTG the figure was 0.0716; with AATAACAG, 0.0771.

ATTGAGAG: the binding signal (normalized occupancy) came to 0.0765. With AATGCTGC the figure was 0.0788. With GACGTGTA the figure was 0.0816; with CACCGCGC, 0.0783. With GGCCGTAC the figure was 0.0801; with AAAATTCA, 0.072. Regarding AGGCCAGA, the binding signal (normalized occupancy) came to 0.0668. For the sequence ACATCACA, the binding signal (normalized occupancy) came to 0.0901.

Consider CACAGTTA, for which the binding signal (normalized occupancy) worked out at 0.078.

For the sequence GGCTTCCC, the binding signal (normalized occupancy) was determined as 0.0697. For CACGGCCG, the binding signal (normalized occupancy) is 0.0736. Regarding CGTAGTCA, the binding signal (normalized occupancy) amounted to 0.0766.

In the case of ATATTGCG, the binding signal (normalized occupancy) amounted to 0.0786. For AGATGACG, the binding signal (normalized occupancy) was found to be 0.0757. Turning to AAGTCTTC, the binding signal (normalized occupancy) is 0.0732. Next, TACCAAAA: 0.0707; CTTCGTGA: 0.0722. On to GATAACAC, for which the binding signal (normalized occupancy) came out at 0.0816. With CCACCCAC the figure was 0.0886. On to GGCAATAC, for which the binding signal (normalized occupancy) is 0.076. With TCTGCACA, the binding signal (normalized occupancy) stood at 0.0849.

Turning to ACCATCCA, the binding signal (normalized occupancy) stood at 0.0817.

For the sequence AATTTATG, the binding signal (normalized occupancy) was 0.0806. Next, CGGAGCAC: 0.0746; ATTGACAC: 0.0832. With CGTTTAGC, the binding signal (normalized occupancy) turned out to be 0.0714.

Consider TGGGCAAA, for which the binding signal (normalized occupancy) worked out at 0.0704. For AGTAGAGA, the binding signal (normalized occupancy) amounted to 0.0707. As to CAGCTGAG, the binding signal (normalized occupancy) came out at 0.0664. With ACCGCATC the figure was 0.0749; with ATGGGCCC, 0.0703. With GGCAGGCC the figure was 0.0644. With CTCGCAAA, the binding signal (normalized occupancy) came to 0.0742. As for GATTGGGC, the binding signal (normalized occupancy) was found to be 0.0764. Next, GGCATGAC: 0.0858. For the sequence GGCCGACA, the binding signal (normalized occupancy) amounted to 0.0686. With ATAGTCAG the figure was 0.0801; with ACTAGTCA, 0.0755; with CAAGCGAA, 0.0755. Next, AGTAATGG: 0.0783; GACGCCCA: 0.073. Regarding AGGAAGCG, the binding signal (normalized occupancy) was 0.071. Next, ACTAGATG: 0.0776; GATCTATA: 0.0774; GGTACTAA: 0.0754. With CGGGCGTA the figure was 0.0722. Next, ATTGGGAG: 0.076. In the case of CCTGTTGC, the binding signal (normalized occupancy) was determined as 0.0752.

Take AGGGGGAC: the binding signal (normalized occupancy) was 0.0712. For CAATGTGA, the binding signal (normalized occupancy) came out at 0.0948. With GAGCGATC the figure was 0.0691; with CTACTTCC, 0.0742. As for AAAGTACC, the binding signal (normalized occupancy) amounted to 0.0775.

On to CCACAAAA, for which the binding signal (normalized occupancy) came to 0.0716.

With CCGCTACG, the binding signal (normalized occupancy) was determined as 0.0679.

In the case of CGTGACAC, the binding signal (normalized occupancy) is 0.093. GCATACGA: the binding signal (normalized occupancy) turned out to be 0.0814. Regarding TGCGGTAA, the binding signal (normalized occupancy) turned out to be 0.0754. In the case of GGGGTCAA, the binding signal (normalized occupancy) was 0.0904. With CGGATGGA the figure was 0.0765. For the sequence AAAATGTG, the binding signal (normalized occupancy) stood at 0.0886. In the case of ATACCTAT, the binding signal (normalized occupancy) was 0.0781. On to ACGATGCC, for which the binding signal (normalized occupancy) was determined as 0.073. Consider ATCCCCCC, for which the binding signal (normalized occupancy) was 0.0808. TGACGACA: the binding signal (normalized occupancy) is 0.0736. For CCTGCGTA, the binding signal (normalized occupancy) stood at 0.0745.

As for AGGTGACA, the binding signal (normalized occupancy) was determined as 0.0777. Turning to CCTAGGTA, the binding signal (normalized occupancy) worked out at 0.0715. Next, CCGGATCC: 0.0759; CATGCTTA: 0.104; TATAGACA: 0.0807. Next, ACTACGAA: 0.0738; ACCGGTCC: 0.0659. Next, ACCATACA: 0.0822.

Consider ATAAATCA, for which the binding signal (normalized occupancy) was 0.0808.

For AAAGTCCC, the binding signal (normalized occupancy) stood at 0.0644. For TCAATGAA, the binding signal (normalized occupancy) stood at 0.0799. With ATGGGTCC the figure was 0.0886; with GACTGCTC, 0.0675. With TCCATCCA the figure was 0.0825. Next, CGTCCACC: 0.0751.

In the case of AGTTGGTA, the binding signal (normalized occupancy) is 0.074. With AGCATACA the figure was 0.087; with AGGTTTCA, 0.0727. With AAGAGCGA, the binding signal (normalized occupancy) is 0.0682. Next, CTGCTTCA: 0.0751; AGCTTTGC: 0.0662; AGCACAGG: 0.0743. Consider AACCACTT, for which the binding signal (normalized occupancy) turned out to be 0.073.

In the case of CGGCGTAG, the binding signal (normalized occupancy) was 0.0712. On to CGGACATC, for which the binding signal (normalized occupancy) is 0.077.

For the sequence TATCGTCA, the binding signal (normalized occupancy) was determined as 0.0811.

For CTTGGAGC, the binding signal (normalized occupancy) amounted to 0.0677. On to TGCCGGAA, for which the binding signal (normalized occupancy) is 0.0695. With CCAAGTCA the figure was 0.0739; with TTCAGGAA, 0.0721; with ACTGCGGG, 0.0665. On to CGAGTGCC, for which the binding signal (normalized occupancy) was 0.0682. Next, GGCGTCTA: 0.0705; ACAACCGC: 0.0762. With AGCTGAGA the figure was 0.0685. For the sequence AGATATAG, the binding signal (normalized occupancy) was 0.0833.

As to CGGCGGTA, the binding signal (normalized occupancy) is 0.0723. On to ATACTTTA, for which the binding signal (normalized occupancy) was 0.0824. Next, CAGGGTGC: 0.0727. Turning to GTTCGACA, the binding signal (normalized occupancy) came out at 0.0752. Turning to AAGGGTGC, the binding signal (normalized occupancy) is 0.0783. With CCATTAAA the figure was 0.0779. With AGGCCCAT the figure was 0.0774. With CCATTAAG the figure was 0.0744; with ACCCAAGT, 0.0781; with GCATTGCC, 0.0746. With CTGCTCTC, the binding signal (normalized occupancy) stood at 0.0736. With CAGTTTCA the figure was 0.0697. In the case of GTCGTGTA, the binding signal (normalized occupancy) turned out to be 0.0822. With GCTGACCA the figure was 0.0688; with GGCTCGGA, 0.0728; with GGCGAATA, 0.0819. Next, CAGTGCTC: 0.0745; ATCATTCC: 0.0804; TCCTTAGA: 0.0714. Consider ACAGGAAC, for which the binding signal (normalized occupancy) worked out at 0.0773. As for AACATAGA, the binding signal (normalized occupancy) is 0.0802. Next, AATCCGCT: 0.0713.

With GGCCTCTA, the binding signal (normalized occupancy) was 0.0736. With GAGCACTC the figure was 0.0779; with CCGCCCTA, 0.0723; with CAGCCCAA, 0.0773. Next, AACAAAGA: 0.0725.

As for AGTCTACC, the binding signal (normalized occupancy) came to 0.0714.

As for ATTGGGGA, the binding signal (normalized occupancy) was determined as 0.0777.

Regarding ACGAACGC, the binding signal (normalized occupancy) was 0.0665. Next, CATATAGC: 0.0823.

As to TCTGTACA, the binding signal (normalized occupancy) worked out at 0.082. As to AAAGGCAA, the binding signal (normalized occupancy) was found to be 0.0733.

With CGTCGTCC, the binding signal (normalized occupancy) turned out to be 0.0763. With AGTTTCAT the figure was 0.0714; with ATGCCATC, 0.0815. On to ACCAGTAC, for which the binding signal (normalized occupancy) was 0.0725. As to AGATGTTC, the binding signal (normalized occupancy) was 0.0775. For the sequence CGGTCGCC, the binding signal (normalized occupancy) came out at 0.0673. On to ATCTGGTA, for which the binding signal (normalized occupancy) was 0.0783. Next, GGCCTCAC: 0.0746; AGGACGAT: 0.0759; CAAATGCA: 0.0784. Turning to GCCCCGCC, the binding signal (normalized occupancy) turned out to be 0.0761. On to ATGCATCA, for which the binding signal (normalized occupancy) was 0.0872. Next, CCTCAGGC: 0.068.

For GGGCTGCA, the binding signal (normalized occupancy) came out at 0.0734. Consider GGCTGTCA, for which the binding signal (normalized occupancy) came out at 0.073. Next, AGAATACT: 0.0797; ACGGAAAC: 0.0713; AGTACGGC: 0.0736.

As for AGTGCAGA, the binding signal (normalized occupancy) worked out at 0.0738.

For GCACGCGC, the binding signal (normalized occupancy) stood at 0.15. With GCCGGAAC the figure was 0.0672; with CCGCGTCC, 0.0681. As for ACCTGTAA, the binding signal (normalized occupancy) was determined as 0.0823.

As to AAGGCGCA, the binding signal (normalized occupancy) worked out at 0.0713. Regarding ATTCGAAC, the binding signal (normalized occupancy) is 0.0746. Turning to GACAGAGC, the binding signal (normalized occupancy) turned out to be 0.0684. Next, CTTCTAAA: 0.0721.

Turning to CTGTGTCA, the binding signal (normalized occupancy) came out at 0.0742.

Consider AAGCCCAA, for which the binding signal (normalized occupancy) was 0.0729.

Regarding GGATATAA, the binding signal (normalized occupancy) came to 0.0786. Turning to GATATTAA, the binding signal (normalized occupancy) was found to be 0.0772.
